# Measured values as given in PubChem BioAssay AID504832 (National Center for Advancing Translational Sciences (NCATS), 2011).
# Among all 310,000 compounds or so, about 18,000 (5.8%) were called active. Inconclusive results, whose numbers are uncertain, are shown with a selection of clear calls. The call rests on the fitted dose curve; in most records, active means well fitted inhibition curve with a large enough effect; inconclusive means small, poorly fitted or top-dose-only effect, or another doubt; inactive means no such curve, though single readings can be large or run the other way. Potencies of inconclusive entries are left out as doubtful fits.
# Test: Primary qHTS for delayed death inhibitors of the malarial parasite plastid, 48 hour incubation
# Conditions: P. falciparum luciferase growth in erythrocytes; series mostly up to 28.7 µM; activity change, negative = inhibition: at the top concentration
# How it was run: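 Here the parasites carry a stable luciferase gene and grow inside erythrocytes in Albumax-based RPMI medium with compound for one erythrocytic cycle. Activity is scored as loss of luminescent signal.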
# On the % scale 0 is the no-effect control and ±100 the full control effect; potency means the concentration at half of the fitted maximal effect; tags describe the fitted curve by direction and shape.
Compound,"activity change, negative = inhibition",Potency
CC(C)CN(C1CCS(=O)(=O)C1)S(=O)(=O)c1ccc(C(C)C)cc1 (centres undefined),inactive: -15%,–
COc1ccc(-c2cc(C(=O)OC(C)C(=O)Nc3c(C)n(C)n(-c4ccccc4)c3=O)c3ccccc3n2)cc1 (centres undefined),inactive: 24.8%,–
CCc1cccc(C)c1NC(=O)CCOc1ccccc1,inactive: -0.269%,–
Cc1cccc(Nc2nnc(SCC(=O)NC3CCCc4ccccc43)s2)c1C (centres undefined),–,"inconclusive [inhibitor, single point]"
CC(C)c1ccc(OC(=O)c2cccc(S(=O)(=O)N3CCN(C)CC3)c2)cc1,inactive: 8.55%,–
COc1ccc(S(=O)(=O)Nc2cccnc2)c(C)c1C,inactive: 0%,–
COc1ccc(-c2nonc2NC(=O)c2oc3ccc(F)cc3c2C)cc1OC,–,"inconclusive [inhibitor, single point]"
CC(NC(=O)C(Cc1ccccc1)N1C(=O)C2C3CCC(C3)C2C1=O)c1ccccc1 (centres undefined),–,"inconclusive [inhibitor, partial curve]"
CN(c1ccccc1)S(=O)(=O)c1cccc(NC(=O)C2CC(=O)N(Cc3ccccc3)C2)c1 (centres undefined),–,"inconclusive [inhibitor, single point]"
CCOC(=O)c1cnc(SCc2ccc(C(C)(C)C)cc2)nc1N,–,"inconclusive [inhibitor, single point]"
O=C(CSc1nnc(CNc2ccc(F)cc2)n1-c1ccccc1)N1CCOCC1,–,"inconclusive [inhibitor, single point]"
CCOc1ccc(S(=O)(=O)N2CCCC(C(=O)NC3CC3)C2)cc1Cl (centres undefined),–,"inconclusive [inhibitor, partial curve]"
Cc1ccc(S(=O)(=O)Nn2c(C)ccc2C)cc1,inactive: 7.22%,–
Cc1ccc(-c2nn(-c3ccccc3)cc2/C=C2\SC(=S)N(CCCCCC(=O)O)C2=O)o1,–,active: 4.65 µM
COc1ccc(N2CCN(CCCNC(=O)c3ccc(CS(=O)(=O)c4ccc(OC)cc4)o3)CC2)cc1,–,"inconclusive [inhibitor, single point]"
CCC(=O)Nc1ccc(C(=O)CN2CCC(C)CC2)cc1,inactive: 19.4%,–
O=C(NCCCc1ccccc1)Nc1cccc(Cl)c1,–,"inconclusive [inhibitor, single point]"
CCN1CCN(CCNC(=O)c2ccc3nc(-c4cccc(C)c4)c(-c4cccc(C)c4)nc3c2)CC1,–,"inconclusive [inhibitor, single point]"
COc1ccc(C2C(C#N)=C(SC)NC3=C2C(=O)CC(C)(C)C3)cc1 (centres undefined),–,"inconclusive [inhibitor, partial curve, poor fit]"
COc1ccc(N2C(=O)CC(Sc3nc4ccccc4s3)C2=O)cc1 (centres undefined),–,"inconclusive [inhibitor, full curve, poor fit]"
Cc1cccc(NC(=S)NCc2ccc3c(c2)OCO3)c1,inactive: 3.19%,–
CNC(=S)N(CCc1c(C)[nH]c2ccc(OC)cc12)Cc1cc(OC)c(OC)c(OC)c1,–,active: 10.4 µM
Nc1cccc(C(=O)OCC(=O)NC2CCCc3ccccc32)c1 (centres undefined),–,active: 11.7 µM

Compound,"activity change, negative = inhibition",Potency
Cc1ccc2nc(NC(=O)CSc3nc4c(c(=O)n3C)SC(C)C4)sc2c1 (centres undefined),–,"inconclusive [inhibitor, partial curve]"
Cc1ccsc1/C=C1\SC(N2CCOCC2)=NC1=O,–,"inconclusive [inhibitor, single point]"
O=C(c1noc2c1CCCC2)N1CCN(C(c2ccccc2)c2ccccc2)CC1,–,"inconclusive [inhibitor, single point]"
c1ccc(COc2ccc(OCCCNC3CCCC3)cc2)cc1,–,"inconclusive [inhibitor, single point]"
CCC(C(=O)NCCCN1CC(C)CC(C)C1)n1ncn2c(cc3occc32)c1=O (centres undefined),–,"inconclusive [inhibitor, single point]"
O=C(c1cnn(Cc2ccccc2)c1)N1CCN(S(=O)(=O)/C=C/c2ccccc2)CC1,–,"inconclusive [inhibitor, single point]"
Cc1cc(NC(=S)N(CCCN2CCOCC2)Cc2ccco2)ccc1Cl,–,"inconclusive [inhibitor, single point]"
CCC1=NN2C(=N)/C(=C\c3cccn3-c3ccc(OC)cc3)C(=O)N=C2S1,–,"inconclusive [inhibitor, partial curve, poor fit]"
O=C(Cc1cccs1)NNC(=O)C12CC3CC(CC(C3)C1)C2,–,active: 10.4 µM
CC1(C)CC(=O)C2=C(C1)OC1=C(C(=O)CC(C)(C)C1)C2c1cc([N+](=O)[O-])cc([N+](=O)[O-])c1O,–,"inconclusive [inhibitor, single point]"
COCCCn1c(C)cc(C(=O)CN2c3cccc4cccc(c34)S2(=O)=O)c1C,–,"inconclusive [inhibitor, single point]"
CN(CC(=O)NC(=O)NCc1ccccc1)CC(=O)Nc1ccc(Cl)c(C(F)(F)F)c1,–,"inconclusive [inhibitor, single point]"
COc1ccc(-c2ccc(C(=O)O)o2)c([N+](=O)[O-])c1,inactive: 16%,–
CCOC(=O)CSc1nc2c(c(=O)n1-c1ccc(OCC)cc1)SCC2,inactive: -16.1%,–
CC(C)(C)NC(=O)C1CCN(C(=O)c2ccco2)CC1,inactive: 11.6%,–
O=C(NC(=S)Nc1ccc(N2CCOCC2)cc1)c1cncc(Br)c1,inactive: -2.32%,–
COCc1c(C(=O)N/N=C/c2ccc(C)o2)nnn1-c1nonc1N,inactive: 0%,–
CCCCn1c(N)c(N(CC(C)C)C(=O)CN(C)S(=O)(=O)c2ccc(C)cc2)c(=O)[nH]c1=O,–,"inconclusive [inhibitor, partial curve, poor fit]"
Cc1ncc(CO)c(/C=N/Nc2ccc(C(F)(F)F)cn2)c1O,–,"inconclusive [inhibitor, partial curve]"
Cn1c(=O)[nH]c(=O)c2c1nc(N1CCCCCC1)n2CCCSc1nnnn1-c1ccccc1,–,"inconclusive [inhibitor, partial curve, poor fit]"
Cc1nc(N2CCC(C)CC2)c2c(C)c(C(=O)Nc3ccc4c(c3)OCCO4)sc2n1,–,"inconclusive [inhibitor, partial curve]"
Cc1cc(C)c(S(=O)(=O)Nc2ccc3c4c(cccc24)CC3)c(C)c1,–,"inconclusive [inhibitor, single point]"
COc1cc(-c2n[nH]c(=S)n2-c2ccccc2C(F)(F)F)cc(OC)c1OC,–,"inconclusive [inhibitor, single point]"

Compound,"activity change, negative = inhibition",Potency
C[C@@H]1CC=C[C@H]2[C@H]1C(=O)N(Cc1ccccc1)[C@H]2c1ccc(-c2ccc(F)cc2)cc1F,–,"inconclusive [inhibitor, single point]"
Cc1ccc(NC(=O)CNC(=O)c2cccc(Cl)c2)nc1,inactive: 35.6%,–
CCCC(=O)Nc1ccc(C=C(C(C)=O)C(C)=O)cc1,–,"inconclusive [inhibitor, partial curve]"
CSc1cccc(N2C(=O)C3CCCN3C2=S)c1 (centres undefined),–,"inconclusive [inhibitor, partial curve, poor fit]"
Cc1ccc([N+](=O)[O-])cc1NC(=O)CNC1CCCCC1,–,active: 11.7 µM
CC1CCC(C(=O)NC(C(=O)N2CCN(c3ccccn3)CC2)C(C)C)CC1 (centres undefined),inactive: 4.07%,–
COCC1CCCN(Cc2cn(-c3ccccc3F)nc2-c2cc(C)sc2C)C1 (centres undefined),–,"inconclusive [inhibitor, partial curve, poor fit]"
CCn1cc(CN2CCCC(C(=O)Nc3cccc(-c4cc5ccccc5[nH]4)c3)C2)cn1 (centres undefined),–,active: 10.4 µM
Cc1cc(=O)n2c3c(sc2n1)C(=O)N(Cc1ccccc1)C3=O,inactive: -4.37%,–
Cc1cc(C)cc(-n2c(C)cc(C(=S)N3CCOCC3)c2C)c1,–,active: 11.7 µM
COC(=O)c1ccccc1NC(=O)C1CCN(C(=O)Cc2ccccc2)CC1,–,"inconclusive [inhibitor, single point]"
Cc1cccc(C)c1NC(=O)CN(C)C(=O)c1cc(S(=O)(=O)N2CCOCC2)ccc1N1CCCC1,–,"inconclusive [inhibitor, single point]"
CCn1c(-c2cc(-c3ccccc3)sc2N)n[nH]c1=S,–,"inconclusive [inhibitor, partial curve, poor fit]"
COc1ccc(-n2nc(C(=O)NCC(=O)NCCN(C)C)c3ccccc3c2=O)c(OC)c1,inactive: 19.4%,–
O=C(CCN1C(=O)/C(=C/c2ccc(Cl)cc2)SC1=S)Nc1ccc(C(=O)O)cc1,inactive: 3.33%,–
O=C(CCS(=O)(=O)c1cccs1)Nc1ccc(C(=O)NCc2cccs2)cc1,–,"inconclusive [inhibitor, partial curve]"
CC(C)(C)NC(=O)NC(=O)CSc1cccc(C(F)(F)F)c1,–,"inconclusive [inhibitor, partial curve, poor fit]"
O=C(CCSc1ccc(Cl)cc1)NC1CCCCC1,–,"inconclusive [inhibitor, full curve]"
Clc1ccc(OCc2nn3c(-c4ccncc4)nnc3s2)cc1,inactive: 30.6%,–
Cc1ccc(Cn2nnc3c(=O)[nH]c(C4CCCN(S(=O)(=O)c5ccccc5F)C4)nc32)cc1 (centres undefined),–,"inconclusive [inhibitor, full curve]"
CC1(c2ccccc2)CC2CC(c3ccccc3)N1O2 (centres undefined),–,"inconclusive [inhibitor, partial curve, poor fit]"
CC(=O)c1cnc(Nc2nc(C)c3ccc(C)cc3n2)nc1C,inactive: 11.9%,–
CCNc1nc(NCC)n2c(SCC(=O)c3ccccc3Cl)nnc2n1,inactive: -24.6%,–
